Results reported in PubChem BioAssay AID504832 (National Center for Advancing Translational Sciences (NCATS), 2011).
The whole screen tested about 310,000 compounds, of which about 18,000 (5.8%) were called active. The inconclusive results got no clear call from the source; some entries with a clear call stand among them for comparison. Calls come from the whole dose curve; as a rule, active = well fitted inhibition curve with a large enough effect; inconclusive = small, poorly fitted or top-dose-only effect, or another doubt; inactive = no such curve, though single readings can be large or run the other way. No potency is given beside an inconclusive call; the fits are too rough.

Assay: Primary qHTS for delayed death inhibitors of the malarial parasite plastid, 48 hour incubation
Details: P. falciparum luciferase growth in erythrocytes; series mostly up to 28.7 µM
Text: The goal of this screen is to discover new antimalarial compounds that act by inhibiting the development of the apicoplast in the malarial parasite Plasmodium falciparum. The biochemical processes that make this organelle essential for erythrocytic stage parasites are not well understood. However, antibiotics such as azithromycin and tetracycline, which target the apicoplast translational machinery, have a potent antimalarial effect.
We have developed a cell-based assay that measures parasite growth based on the expression of an integrated copy of a firefly luciferase reporter. To detect small molecules that cause this "delayed death" phenotype, erythrocytes infected with the luciferase-expressing parasites were incubated with compounds for either one or two generations, corresponding to 48 and 96 hours, respectively. Compounds that inhibit parasite growth in the second generation, but not the first, should be enriched in antimalarials that target the apicoplast. Growth inhibition is detected by a decrease in luciferase activity.
Assay Provider: David Fidock and Eric Ekland, Columbia University
Keywords: NIH Roadmap, MLPCN, MLI, MLSMR, qHTS, NCGC, qHTS, malaria, luciferase, viability
Four microliters of culture medium (RPMI 1640 with 0.5% w/v Albumax (GIBCO), 24 mM sodium bicarbonate and 10 ug/mL gentamycin) were dispensed by a Multi-drop Combi into white solid 1536-well plates (Grenier) and 23 nL compound was added by a pin tool. Four microliters of infected erythrocytes (2% hematocrit, 0.1% parasitemia final concentration) in culture medium were dispensed and the plates incubated for 48 hours at 37 C in 5% CO2. Two microliters of luciferase detection reagent was added and luminescence was detected by a ViewLux (PerkinElmer) reader.
Potency is the fitted concentration of half-maximal effect; tags give direction and shape of the fitted curve.

SMILES | Potency
Cc1ccc(C(C(=O)NC2CCCCC2)N(Cc2ccccc2)C(=O)Cc2c[nH]c3ccccc23)o1 (stereo not drawn) | inconclusive [inhibitor, single point]
Cc1ccc2c(c1)C1CN(C)CCC1N2S(=O)(=O)c1cc(C(F)(F)F)ccc1Cl (stereo not drawn) | active: 9.28 µM
COc1cccc(CCC(=O)N2CCC(n3nccc3NC(=O)CC(C)C)CC2)c1 | inactive
Cc1cccc(N2CCN(C(=O)CCNS(=O)(=O)c3ccc4c(c3)oc(=O)n4C)CC2)c1C | inconclusive [inhibitor, single point]
Cc1cccn2c(=O)c3cc(C(=O)NCc4ccco4)c(=N)n(CCc4ccccc4)c3nc12 | active: 0.586 µM
O=S(=O)(c1ccc(-c2ccon2)s1)N1CCN(c2ccccn2)CC1 | inconclusive [inhibitor, partial curve, poor fit]
COC(=O)c1cc(C(=O)OCC(=O)N(C)c2ccccc2)cc([N+](=O)[O-])c1 | inactive
c1ccc(N2N=C(c3cccs3)CC2c2ccco2)cc1 (stereo not drawn) | inactive
Cc1ccc(NC(=O)CSC2=NN3CCCC(=O)N=C3S2)cc1Cl | inconclusive [inhibitor, partial curve]
CCOc1ccc(S(=O)(=O)N2CCOCC2)cc1NC(=O)CN1C(=O)NC(CC)(c2ccccc2)C1=O (stereo not drawn) | active: 11.7 µM
O=C(NCC1CCCO1)c1ccc(Oc2ccc([N+](=O)[O-])cc2Cl)cc1 (stereo not drawn) | inactive
CCN1CCc2c(sc(NC(=O)c3ccc4ccccc4c3)c2C(N)=O)C1 | active: 11.7 µM
CCOC(=O)c1cccc(NC(=O)CSc2nc3cccnc3n2C)c1 | inconclusive [inhibitor, partial curve]
Cc1cc(C(=O)OCC(=O)Nc2ccc(F)cc2F)c(C)o1 | inconclusive [inhibitor, single point]
Cc1ccc(NC(=O)CCN2C(=O)NC(C)(C)C2=O)cc1F | inactive
CC(NC(=O)COC(=O)/C(=C/c1cccs1)c1cccs1)c1ccccc1 (stereo not drawn) | inconclusive [inhibitor, partial curve, poor fit]
CCOc1ccc(NC(=O)CC2C(=O)N(C)C(=S)N2CCCc2ccccc2)cc1 (stereo not drawn) | inconclusive [inhibitor, partial curve, poor fit]
COc1ccccc1NC(=O)c1ccc(NC(=O)COC(=O)C(C)C)cc1 | active: 7.38 µM
CC(=O)[C@H]1[C@H](c2cccc(Cl)c2)C(C#N)(C#N)[C@@H]2c3ccccc3C=CN21 | inconclusive [inhibitor, partial curve, poor fit]
COc1ccc(-c2ncc(CN3CCC(CO)(Cc4cccc(OC)c4)CC3)cn2)cc1 | active: 10.4 µM
Cc1c(C)c2ccc(OCC(=O)NCCCn3ccnc3)c(C)c2oc1=O | inconclusive [inhibitor, partial curve, poor fit]
COc1ccc2nc(NC(=O)CCc3nc(C4=CCN(C)CC4)no3)sc2c1 | inconclusive [inhibitor, single point]
Cn1nnnc1Sc1ncnc2scc(-c3ccc(Cl)cc3)c12 | active: 6.57 µM

SMILES | Potency
COc1ccc(-n2c(C)cc(C(=O)CSc3nnc(-c4cccs4)o3)c2C)cc1 | inconclusive [inhibitor, single point]
CCn1c2ccccc2c2cc(N)ccc21 | inconclusive [inhibitor, single point]
Cc1nnc(Nc2ccc(S(N)(=O)=O)cc2)c2ccccc12 | inactive
CC(C)c1ccc(NC(=O)C2CCCN2S(=O)(=O)c2ccccc2F)cc1 (stereo not drawn) | inconclusive [inhibitor, single point]
COc1cccc(CC2(CO)CCN(CC3=CC[C@H]4C[C@@H]3C4(C)C)CC2)c1 | inactive
C=C(C)Cn1c(=O)n(CC2CS2)c2ccccc21 (stereo not drawn) | inactive
Cc1ccc(/C=N/NC(=O)c2c(-c3ccccc3)noc2C)c(O)c1 | inconclusive [inhibitor, partial curve]
CN(C(=O)CSc1nnc(-c2ccco2)n1Cc1ccccc1)C1CCS(=O)(=O)C1 (stereo not drawn) | inactive
CCOC(=O)C(C)Sc1ncc(-c2ccccc2)cn1 (stereo not drawn) | inconclusive [inhibitor, single point]
S=C1NCCc2ccccc2C1c1ccccc1Cl (stereo not drawn) | active: 13.1 µM
CCN1CCN(Cc2ccc(NC(=O)Nc3ccc(OC)cc3)cc2)CC1 | inconclusive [inhibitor, single point]
Nc1c(-c2ccccc2)cnn1-c1cccc(Cl)c1 | inactive
CCOC(=O)N1CCc2c(sc3nc(SC(C)C)n(N)c(=O)c23)C1 | inconclusive [inhibitor, single point]
CC(=NCc1cccnc1)c1c(O)n(-c2ccccc2)c(=O)[nH]c1=O | inconclusive [inhibitor, full curve, poor fit]
C[C@H](NC(=O)c1nc[nH]c1C(=O)N1CCN(c2ccccc2)CC1)c1ccccc1 | inactive
C1CC(CN2CCOCC2)CN(Cc2nc(CC3CC3)no2)C1 (stereo not drawn) | inactive
COc1cc(C2NCC(c3ccc(Cl)cc3Cl)c3c2[nH]c2ccccc32)cc(OC)c1OC (stereo not drawn) | active: 13.1 µM
CC/C(O)=C1\C(=O)CC(c2ccccc2)CC1=NCCc1c(C)[nH]c2ccc(C)cc12 (stereo not drawn) | inconclusive [inhibitor, single point]
CCOC(=O)c1ccc(N2C(=O)c3n[nH]c(-c4ccco4)c3C2c2ccc([N+](=O)[O-])cc2)cc1 (stereo not drawn) | inconclusive [inhibitor, single point]
COc1ccc(COC(=O)C2=C(C)NC(=O)NC2c2ccccc2OC(C)C)cc1 (stereo not drawn) | inconclusive [inhibitor, single point]
Cc1ccccc1OCC(=O)Nc1cc(S(=O)(=O)N2CCCCC2)ccc1N1CCN(C)CC1 | inactive
Cc1ccnc(NS(=O)(=O)c2ccc(NC(=O)c3cc(-c4ccc(Br)cc4)nc4ccccc34)cc2)n1 | inactive
CN(CC(=O)Nc1c(Cl)cccc1Cl)C(=O)CCC(=O)c1ccccc1 | inconclusive [inhibitor, partial curve, poor fit]

SMILES | Potency
CC(=O)N/C(=C\c1ccccc1)C(=O)OCC(=O)c1c(N)n(CC(C)C)c(=O)n(C)c1=O | inconclusive [inhibitor, single point]
CC(=O)N1c2ccc(S(=O)(=O)N(C)CC(=O)NC3CCCCC3C)cc2CC1C (stereo not drawn) | inconclusive [inhibitor, full curve, poor fit]
Cc1ccc(C(=O)C2=C(O)C(=O)N(CCN3CCOCC3)C2c2ccccn2)o1 (stereo not drawn) | inactive
N#Cc1ccccc1CSc1nc(O)cc(=O)[nH]1 | inactive
COc1ccc(NCc2cc(=O)oc3cc(NC(C)=O)ccc23)cc1 | inconclusive [inhibitor, full curve, poor fit]
C/C(CC(=O)NC1CCCCC1)=N\NC(=O)COc1ccc(C)cc1Br | inconclusive [inhibitor, full curve, poor fit]
O=C(Nc1cc(Cl)ccc1N1CCOCC1)c1ccc(N2CCCC2=O)cc1 | inconclusive [inhibitor, single point]
CCCn1nc(C(=O)NNC(=O)C2CSC3(C)CCC(=O)N23)c2ccccc2c1=O (stereo not drawn) | inconclusive [inhibitor, single point]
O=c1nc(-c2ccccc2)cc(-c2ccccc2)[nH]1 | inconclusive [inhibitor, partial curve, poor fit]
Cc1ccc(S(=O)(=O)N2CCC(NC(=O)c3cccnc3)CC2)cc1Cl | inconclusive [inhibitor, partial curve, poor fit]
Cc1ccccc1CSc1nnc(C)n1N | inactive
COc1ccc(CCN(C)C2CCCN(S(=O)(=O)c3ccccc3)C2)cc1OC (stereo not drawn) | inconclusive [inhibitor, partial curve, poor fit]
CN(C(=S)Nc1ccc(SC(F)F)cc1)C(c1ccccc1)c1ccccc1 | active: 9.28 µM
CCn1cc2nc(SCC(=O)Nc3ccc(F)cc3F)n(Cc3ccccc3)c(=O)c2n1 | inconclusive [inhibitor, partial curve]
CC(C)CCNC(=O)C1(O)c2ccccc2NC(=O)N1c1ccc(Cl)cc1 (stereo not drawn) | inactive
CCOc1ncccc1C(=O)Nc1ccccc1C(=O)NCc1ccc2c(c1)OCO2 | inconclusive [inhibitor, single point]
CN(C(=O)c1ccccc1[N+](=O)[O-])c1ccccc1C(=O)NCc1ccccc1 | inconclusive [inhibitor, single point]
CCN1C(=O)[C@H]2[C@@H](c3ccc(C)cc3)N3C(=O)N(c4cccc(Br)c4)C(=O)[C@@]3(CC(C)C)[C@H]2C1=O | inconclusive [inhibitor, partial curve, poor fit]
COC(C(=O)C(O)C(C)O)C1Cc2cc3cc(OC4CC(OC5CC(O)C(O)C(C)O5)C(O)C(C)O4)c(C)c(O)c3c(O)c2C(=O)C1OC1CC(OC2CC(OC3CC(C)(O)C(O)C(C)O3)C(O)C(C)O2)C(O)C(C)O1 (stereo not drawn) | active: 0.0601 µM
C[C@@]12CCC=C[C@H]1[C@H](c1ccc(C(F)(F)F)cc1)N(Cc1ccccc1)C2=O | inconclusive [inhibitor, partial curve]
CN(C)C(=S)SSC(=S)N(C)C | active: 0.849 µM
Cc1ccc(NC(=O)N(Cc2nc3ccccc3c(=O)[nH]2)Cc2cccs2)cc1 | inconclusive [inhibitor, single point]
